Hit rate of the full screen: of about 48,000 compounds, about 550 (1.1%) were called active. Roughly 4% stayed inconclusive and do not appear here. Cut-off read from the data, not from the text of the source: active = potency below about 15 µM; inconclusive = mostly about 16 µM to 33 µM; inactive = weaker than that. The list shows a part of the results.

The record followed here is PubChem BioAssay AID360 (National Center for Advancing Translational Sciences (NCATS), 2006).
Potency is the fitted concentration of half-maximal effect.

In the assay the target is Lysosomal acid glucosylceramidase (Homo sapiens) (UniProt P04062). Kind of assay: Glucocerebrosidase.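 Note: the screen sought inhibitors.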 Particulars: purified enzyme, resorufin glucoside fluorescence (screen aimed at inhibitors), 20 min. Put shortly: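 Normal human glucocerebrosidase (0.2 nM final) was assayed with resorufin β-D-glucopyranoside (30 uM final) in 50mM citric acid/KH2PO4, 10mM sodium taurocholate, 0.01% tween-20, pH 5.9. Compounds were titrated; fluorescence (Ex 548, Em 600) read after 20 min at RT.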
Chain of UniProt P04062 (P04062 whole entry, looked up): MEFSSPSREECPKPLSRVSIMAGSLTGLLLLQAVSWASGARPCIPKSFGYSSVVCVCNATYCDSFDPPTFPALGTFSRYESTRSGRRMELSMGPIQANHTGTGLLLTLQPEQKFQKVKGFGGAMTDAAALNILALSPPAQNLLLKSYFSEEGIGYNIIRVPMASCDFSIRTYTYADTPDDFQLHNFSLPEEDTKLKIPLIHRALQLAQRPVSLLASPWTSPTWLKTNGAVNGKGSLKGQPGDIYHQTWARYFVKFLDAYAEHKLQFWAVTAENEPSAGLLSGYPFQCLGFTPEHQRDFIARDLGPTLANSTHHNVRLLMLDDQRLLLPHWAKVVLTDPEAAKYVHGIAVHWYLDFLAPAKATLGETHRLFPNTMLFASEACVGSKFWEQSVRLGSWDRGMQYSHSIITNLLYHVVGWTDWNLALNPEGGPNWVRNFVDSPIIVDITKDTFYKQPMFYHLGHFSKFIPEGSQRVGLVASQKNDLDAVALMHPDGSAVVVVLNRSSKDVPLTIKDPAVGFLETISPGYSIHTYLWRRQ
For `CCCC(=O)NCc1nc2ccccc2n1C`, the Potency is inactive: > 76.9 µM.
To `Cc1cc(=O)[nH]c(SCC(=O)C23CC4CC(CC(C4)C2)C3)c1C#N` belongs inactive: > 76.9 µM.
The figure for `Cc1cccc(-n2c(Cc3cc(=O)[nH]c(=O)[nH]3)nnc2SCC(=O)NCc2ccco2)c1` is inactive: > 76.9 µM; for `CCn1c(C)nc2cc(S(=O)(=O)N3CCCCC3)ccc21` it is inactive: > 76.9 µM.
The figure for `COc1ccc(-n2cnc3c(sc4nccc(N(C)C)c43)c2=O)cc1` is inactive: > 76.9 µM.
In the case of `CCCCOC(=O)CN1C(=O)c2ccc(C(=O)OCCCC)cc2C1=O`, the Potency is inactive: > 76.9 µM.
To `CC1(C)CC(=O)C2=C(C1)NC(=O)CC2c1cc2c(cc1Br)OCO2` (stereo unspecified) belongs inactive: > 76.9 µM; to `O=C(Cc1cccs1)Nc1nc(-c2ccccc2)cs1`, inactive: > 76.9 µM; to `CCOc1ccc(-n2ccnc2SCC(=O)Nc2nnc(CC)s2)cc1`, “inactive”.
With `CCc1cc2c(=O)[nH]cnc2s1`, the Potency was inactive: > 76.9 µM.
As for `CSc1ccccc1NC(=O)CN(Cc1ccccc1)S(C)(=O)=O`, the Potency was inactive: > 76.9 µM.
For the compound `COc1ccccc1Nc1nc(N)nc(CN(C)C2CCCCC2)n1`, the Potency was inactive: > 76.9 µM.
The figure for `Cc1cc(C(=O)OCC(=O)Nc2cc(C)on2)c2ccccc2n1` is inactive: > 76.9 µM.
The figure for `COc1ccc(-c2nc3c(n2O)CCCC3=O)cc1OC` is inactive: > 76.9 µM; for `CC(C)C1CC(O)(C2(O)CCCCC2)ON1` (stereo unspecified) it is inactive: > 76.9 µM; for `Cc1cc(NC(=O)C2CC(=O)OC2c2ccccc2)no1` (stereo unspecified) it is inactive: > 76.9 µM.
The figure for `Cc1cc(C(=O)COC(=O)Cn2c(C(F)(F)F)nc3ccccc32)c(C)n1Cc1ccco1` is inactive: > 76.9 µM.
Turning to `CCn1c(=O)cc(SCC(=O)Nc2ccccc2N2CCN(C)CC2)c2ccccc21`, the Potency was inactive: > 76.9 µM.
For the compound `Cc1c(NC(=O)COc2ncnc3c(Cl)cc(Cl)cc23)c(=O)n(-c2ccccc2)n1C`, the Potency was inactive: > 76.9 µM.
To `O=C(NCc1ccc2c(c1)OCO2)c1cccc(S(=O)(=O)N2CCCCC2)c1` belongs inactive: > 76.9 µM; to `CCCOc1cccc(C(=O)N(Cc2ccco2)C2CCS(=O)(=O)C2)c1` (stereo unspecified), inactive: > 76.9 µM; to `CN(C)c1ccc(NC(=O)c2ccc(COc3cccc(Cl)c3)o2)cc1`, inactive: > 76.9 µM.
The figure for `COC(=O)c1nc(NC(=O)C(C)(C)C)n[nH]1` is inactive: > 76.9 µM.
For `O=C(Nc1ccc2c(c1)OCCO2)C1CCN(c2nnnn2-c2ccccc2)CC1`, the Potency is inactive: > 76.9 µM.
In the case of `CCn1c(SCC(=O)Nc2nc(C)cs2)nnc1C(NC(=O)c1ccccc1Cl)C(C)C` (stereo unspecified), the Potency was inactive: > 76.9 µM.
For the compound `COc1ccc(-c2cc(C(=O)N3CCOCC3)no2)cc1OC`, the Potency is inactive: > 76.9 µM.
To `COc1cccc(C(=O)Nc2ncc3c(n2)CC(c2ccc(OC)cc2OC)CC3=O)c1` (stereo unspecified) belongs inactive: > 76.9 µM; to `COc1ccc(OC)c(NC(=O)Cn2c(-c3ccc(Cl)cc3)noc2=O)c1`, inactive: > 76.9 µM; to `COc1cccc2cc(C(C)=O)c(=O)oc12`, inactive: > 76.9 µM.
The figure for `COC(=O)c1ccccc1N(C)C(=O)C12CCC(C)(C(=O)O1)C2(C)C` (stereo unspecified) is inactive: > 76.9 µM.
The figure for `CCC(C)NC(=O)C1(C)CCC(=O)N1Cc1ccccc1OC` (stereo unspecified) is inactive: > 76.9 µM.
Consider `Cc1nn(-c2ccccc2)c2nc(=O)n(-c3ccccc3)cc12`, for which the Potency is inactive: > 76.9 µM.
Regarding `CCN(CC)S(=O)(=O)c1ccc(NC2CCCc3ccccc32)nc1` (stereo unspecified), the Potency is inactive: > 76.9 µM.
Consider `c1ccc(-n2ncc3c(NCc4ccccn4)ncnc32)cc1`, for which the Potency is inactive: > 76.9 µM.
The figure for `O=C(O)CSCC(=O)NCc1ccccc1` is inactive: > 76.9 µM; for `COc1ccc(CCNC(=O)c2nn(C)cc2Cl)cc1` it is inactive: > 76.9 µM.
The figure for `COc1cc(OC)cc(C(=O)Nc2ccccc2N2CCOCC2)c1` is inactive: > 76.9 µM; for `COc1ccccc1CN(Cc1cc2cc(C)ccc2[nH]c1=O)Cc1nnnn1Cc1ccco1` it is inactive: > 76.9 µM.
The figure for `CCOC(=O)CN1C2=NCCN2c2ccccc21` is inactive: > 76.9 µM; for `O=C(O)c1ncn(Cc2ccccc2)c1C(=O)O` it is inactive: > 76.9 µM; for `N#Cc1c(-c2ccccc2)cc(C2CC2)nc1N` it is inactive: > 76.9 µM.
Take `COc1cccc(Cn2c(N)c(C#N)c3nc4ccccc4nc32)c1OC`: the Potency was inactive: > 76.9 µM.
With `Clc1ccc(Cc2nn3c(-c4ccncc4)nnc3s2)cc1`, the Potency is inactive: > 76.9 µM.
To `O=C1CCc2cc(S(=O)(=O)N3CCN(c4cccc(Cl)c4)CC3)ccc2N1` belongs inactive: > 76.9 µM; to `CC(C)(C)NS(=O)(=O)c1ccc(CCC(=O)N2CCCCC2)cc1`, inactive: > 76.9 µM.
As for `Cc1csc(NC(=O)c2nc3nc(C)cc(C)n3n2)n1`, the Potency was inactive: > 76.9 µM.
To `COc1cccc(C2=NOC(C(=O)NCC3CCCO3)C2)c1` (stereo unspecified) belongs inactive: > 76.9 µM; to `O=C(COc1ccc2ccccc2c1Br)Nc1ncn[nH]1`, inactive: > 76.9 µM.
To `Cc1nc2cc(-n3ccc(=O)cc3)ccc2n1-c1ccccc1` belongs inactive: > 76.9 µM.
To `COC(=O)c1cc(OC)c(OC)cc1NC(=O)CCCCCN1C(=O)CCC1=O` belongs inactive: > 76.9 µM.
With `O=C(Nc1cccnc1)C1OCCc2ccccc21` (stereo unspecified), the Potency is inactive: > 76.9 µM.
As for `O=C(COc1ccc(S(=O)(=O)N2CCOCC2)cc1)Nc1ccc2c(c1)OCCO2`, the Potency is inactive: > 76.9 µM.
To `COc1ccc(Cl)c(Cn2c(NCCCO)nc3c2c(=O)n(C)c(=O)n3C)c1` belongs inactive: > 76.9 µM; to `CCOc1ccccc1NC(=O)c1ccccc1N(C)S(C)(=O)=O`, inactive: > 76.9 µM.
As for `CN(C)c1ccc(C2C3=C(CCCC3=O)OC3=C2C(=O)CCC3)cc1`, the Potency was inactive: > 76.9 µM.
The figure for `Cn1c(CN2CCCCC2)nc2cc(NS(=O)(=O)c3ccc(Cl)cc3)ccc21` is inactive: > 76.9 µM; for `CCOC(=O)N1CCC(NC(=O)Cn2ncc3ccccc32)CC1` it is inactive: > 76.9 µM.
To `Cc1nc2sc(C(=O)O)c(N)c2c2c1COC(C)(C)C2` belongs inactive: > 76.9 µM.
Take `COc1ccc(NC(C)=O)cc1NC(=O)CSc1nnc(-c2ccccc2)n1N`: the Potency is inactive: > 76.9 µM.
The figure for `CC(C)c1ccc(N2CC(C(=O)Nc3nccs3)CC2=O)cc1` (stereo unspecified) is inactive: > 76.9 µM.
To `CSc1nsc(SC)c1C(=O)NCCNS(=O)(=O)c1ccc(C)cc1` belongs inactive: > 76.9 µM; to `NC(=O)C1CCN(c2nc(-c3ccccc3)nc3ccccc23)CC1`, inactive: > 76.9 µM.
The figure for `CC(C)c1cc(C(F)(F)F)n2nc(C(=O)Nc3ccc4c(c3)OCO4)cc2n1` is inactive: > 76.9 µM.
Consider `CC1=CC(=C2C(=O)c3ccccc3C2=O)C=C(C)O1`, for which the Potency is inactive: > 76.9 µM.
On to `Cc1cc(C(=O)CSc2nc3ccccc3c(=O)[nH]2)c(C)n1C`, for which the Potency is inactive: > 76.9 µM.
The figure for `COC(=O)c1cccc(NC(=O)c2nn(C(C)C)c(=O)c3ccccc23)c1` is inactive: > 76.9 µM; for `CC1N=C2c3ccccc3N=C(SCc3cc(=O)n4cc(Cl)ccc4n3)N2C1=O` (stereo unspecified) it is inactive: > 76.9 µM; for `CC(C)Cc1nc2oc3c(NCC4CCCO4)ncnc3c2c2c1CCC2` (stereo unspecified) it is inactive: > 76.9 µM.
To `Cn1c(CC(=O)Nc2ccccc2)nnc1SCC(=O)c1ccccc1` belongs inactive: > 76.9 µM; to `Cc1sc(NC(=O)c2oc3ccccc3c2C)c(C#N)c1C`, inactive: > 76.9 µM; to `COC(=O)c1ccc(CNC(=O)COc2ccccc2Br)o1`, inactive: > 76.9 µM.
The figure for `Cn1c(=O)c2c(nc(CN3CCN(c4ccccc4F)CC3)n2CCN2CCOCC2)n(C)c1=O` is inactive: > 76.9 µM; for `O=C(Nc1nccs1)NC1CCCCC1` it is inactive: > 76.9 µM; for `COC(=O)c1cc2ccsc2n1CC(=O)N(C)c1ccccc1` it is “inactive”.
Consider `COCCn1c(SCC(=O)Nc2ccc(S(=O)(=O)N3CCOCC3)cc2)nc2ccccc21`, for which the Potency is inactive: > 76.9 µM.
To `CCn1c(SCC(=O)Nc2ccc(S(N)(=O)=O)cc2)nnc1-c1cccc(OC)c1` belongs inactive: > 76.9 µM; to `COCC(=O)N(C)c1nnc(-c2ccccn2)s1`, inactive: > 76.9 µM.
Regarding `C=CCn1c(COc2ccccc2)nnc1SCC(=O)Nc1ccc2c(c1)OCCO2`, the Potency was inactive: > 76.9 µM.
To `Cc1nc2ccc(C(=O)O)cc2c2c1CC(C)S2` (stereo unspecified) belongs inactive: > 76.9 µM.
Regarding `CCOC(=O)c1ccccc1NC(=O)c1ccccc1NS(C)(=O)=O`, the Potency is inactive: > 76.9 µM.
Consider `Cc1ccc2cccc(S(=O)(=O)NC3CCS(=O)(=O)C3)c2n1` (stereo unspecified), for which the Potency is inactive: > 76.9 µM.
Take `CCOC(=O)NC(Nc1nc2ccccc2s1)(C(=O)OCC)C(F)(F)F` (stereo unspecified): the Potency was inactive: > 76.9 µM.
`CCOC(=O)c1sc(NC(=O)CSc2nnnn2-c2ccc(C)cc2C)nc1C`: the Potency is inactive: > 76.9 µM.
`CC(=O)N1CCc2cc(Br)cc(S(=O)(=O)NCCN3CCCCC3C)c21` (stereo unspecified): the Potency is inactive: > 76.9 µM.
Take `O=C(NCCC1=CCCCC1)C1CCN(Cc2cnn(-c3ccccc3)c2-n2cccc2)CC1`: the Potency was inactive: > 15.4 µM.
`COC(=O)COc1cccc(NC(=O)c2cccs2)c1`: the Potency is inactive: > 76.9 µM.
Consider `COc1ccc(-c2ccc(SCC(=O)Nc3cc(C)on3)nn2)cc1OC`, for which the Potency is inactive: > 76.9 µM.
The figure for `Cc1ccccc1Cn1cc(S(=O)(=O)CC(=O)N2CCCCC2)c2ccccc21` is inactive: > 76.9 µM; for `CCOC(=O)Cn1nnnc1CN(Cc1ccc(OC)cc1)Cc1cc2cc(C)cc(C)c2[nH]c1=O` it is inactive: > 76.9 µM; for `O=C(CN1CCN(c2ccccc2F)CC1)Nc1ccccc1F` it is inactive: > 76.9 µM.
As to `COc1ccc(/C(O)=C2\C(=O)C(=O)N(CCN(C)C)C2c2cc(OC)c(OC)c(OC)c2)c(C)c1` (stereo unspecified), the Potency is inactive: > 76.9 µM.
